# Experimental data from the supplement of paper PMC9046079.
# Structures can show the parent of a compound that is named as a salt. ± gives the standard deviation of the averaged measurements. The list shows a part of the results.
# Tested on: murine small intestinal organoids (ENR+CD Paneth differentiation)
# Assay: basal (non-stimulated) secreted lysozyme activity relative to plate median (log10 fold change); higher = more Paneth cell lysozyme secretion
# Details: 2 µM; 6 d
# 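Further: ISC-enriched organoid precursors grown as 2.5D pseudo-monolayer on Matrigel, compound given on day 0 and day 3, plate values LOESS-normalized before median fold change, three murine donors.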
row,SMILES,basal (log10)
1,O=C1CC[C@@]2(O)[C@H]3Cc4ccc(O)c5c4[C@@]2(CCN3CC2CC2)[C@H]1O5 [Naltrexone HCl],0.019 ± 0.08
2,COc1ccc(C(=O)N2CCCC2=O)cc1 [Aniracetam],0.0318 ± 0.1
3,C[C@](O)(COc1ccc(C#N)cc1)C(=O)Nc1ccc(C#N)c(C(F)(F)F)c1,0.0356 ± 0.15
4,Cc1cc(SCc2sc(-c3ccc(C(F)(F)F)c(F)c3)nc2C)ccc1OCC(=O)O,0.0265 ± 0.022
5,O=C(O)CNC(=O)c1c(O)c2ccccc2n(Cc2ccccc2)c1=O,0.0431 ± 0.036
6,C[C@@H]1O[C@@H](O[C@H]2C[C@@H](O)[C@]3(CO)[C@H]4[C@H](O)C[C@]5(C)[C@@H](C6=CC(=O)OC6)CC[C@]5(O)[C@@H]4CC[C@]3(O)C2)[C@H](O)[C@H](O)[C@H]1O [Ouabain],0.0106 ± 0.02
7,CCc1c(C(=O)C(N)=O)c2c(OCC(=O)O)cccc2n1Cc1ccccc1,0.157 ± 0.089
8,CCC(COC(=O)c1cc(OC)c(OC)c(OC)c1)(c1ccccc1)N(C)C (centres undefined) [Trimebutine],-0.0897 ± 0.2
9,"CN1CCc2cc3c(cc2C1C1OC(=O)c2c1ccc1c2OCO1)OCO3 (single isomer, unassigned; (+)) [(+)-Bicuculline]",0.031 ± 0.047
10,Fc1cc(F)c2c(c1)[C@H]1C=CC[C@H]1C(c1cccnc1)N2 (some centres undefined) [Golgicide A],0.171 ± 0.27
11,Cn1cc(C2=C(c3cn(C4CCN(Cc5ccccn5)CC4)c4ccccc34)C(=O)NC2=O)c2ccccc21,0.0527 ± 0.076
12,CCN(CC)C(=O)c1ccc(C2=CC3(CCNCC3)Oc3cccc(O)c32)cc1,0.0656 ± 0.066
13,Cc1sc2c(c1C)C(c1ccc(Cl)cc1)=N[C@@H](CC(=O)OC(C)(C)C)c1nnc(C)n1-2,-0.254 ± 0.12
14,COc1cc(-n2c(=S)[nH]c3ccccc3c2=O)c(Cl)cc1Cl [Mdivi-1],-0.0222 ± 0.17
15,O=c1[nH]c2ccc(Cl)cc2c(N[C@@H]2CN3CCC2CC3)c1-c1nc2ccccc2[nH]1,-0.22 ± 0.12
16,CCCN1CCO[C@@H]2c3cc(O)ccc3OC[C@H]21,0.0891 ± 0.018
17,N[C@@H]1C[C@H]1c1ccccc1 [Tranylcypromine (2-PCPA) HCl],0.0446 ± 0.07
18,CCOC(=O)c1cncn1[C@H](C)c1ccccc1 [Etomidate],0.015 ± 0.016
19,CC[C@@H]1/C=C/C=C/C[C@H](C)[C@H](O)[C@](C)(O)C(=O)[C@H](C)[C@@H](O)[C@H](C)C(=O)[C@H](C)[C@@H](O)[C@H](C)/C=C/C(=O)O[C@H]2[C@@H](C)[C@@H](CC1)O[C@@]1(CC[C@@H](C)[C@@H](C[C@H](C)O)O1)[C@@H]2C [Oligomycin A],-0.213 ± 0.051
20,Cc1ccc(-n2nccn2)c(C(=O)N2CCN(c3nc4cc(Cl)ccc4o3)CC[C@H]2C)c1 [Suvorexant (MK-4305)],0.106 ± 0.091
21,CN1CCCCC1Cn1cc(C(=O)c2cc([N+](=O)[O-])ccc2I)c2ccccc21 (centres undefined),-0.0142 ± 0.036
22,Cc1sc2c(c1C)C(c1ccc(Cl)cc1)=N[C@@H](CC(=O)Nc1ccc(O)cc1)c1nnc(C)n1-2,-0.239 ± 0.14
23,O=C(O[C@H]1C[C@H]2CC[C@@H](C1)[N+]21CCCC1)C(O)(c1ccccc1)c1ccccc1 [Trospium chloride],-0.00119 ± 0.0072
24,C=C1C[C@@H]2[C@H](CC[C@]3(C)C(=O)CC[C@@H]23)[C@@]2(C)C=CC(=O)C=C12 [Exemestane],0.00143 ± 0.11
25,C[C@@]12N[C@@H](Cc3ccccc31)c1ccccc12 [(-)-MK 801 Maleate],-0.256 ± 0.14
26,"O=[N+]([O-])/C=C/c1ccc2c(c1)OCO2 [MNS (3,4-Methylenedioxy-Œ≤-nitrostyrene, MDBN)]",0.0399 ± 0.09
27,CC(=O)O[C@H]1C[C@@H]2CC[C@@H]3[C@H](CC[C@@]4(C)[C@H]3C[C@H]([N+]3(C)CCCCC3)[C@@H]4OC(C)=O)[C@@]2(C)C[C@@H]1[N+]1(C)CCCCC1 [Pancuronium dibromide],0.0925 ± 0.0031
28,CCOc1ccccc1-n1c(C(C)N2CCN(C(=O)COc3ccc(Cl)cc3)CC2)nc2ccccc2c1=O (centres undefined) [Erastin],0.157 ± 0.12
29,Cc1cc2c(C(C)C)c(O)c(O)c(C=O)c2c(O)c1-c1c(C)cc2c(C(C)C)c(O)c(O)c(C=O)c2c1O,-0.0358 ± 0.074
